Measured values reported in patent US20260167693A1 (ANGELES THERAPEUTICS, published 2026).

Target: T1, CD19-ECD-GGSG-NLuc-AcV5 (human)
T1 construct: also called CD19-GGSG-NLuc-AcV5; Flag-CD19-GGSG-NLuc-AcV5
T1 chain: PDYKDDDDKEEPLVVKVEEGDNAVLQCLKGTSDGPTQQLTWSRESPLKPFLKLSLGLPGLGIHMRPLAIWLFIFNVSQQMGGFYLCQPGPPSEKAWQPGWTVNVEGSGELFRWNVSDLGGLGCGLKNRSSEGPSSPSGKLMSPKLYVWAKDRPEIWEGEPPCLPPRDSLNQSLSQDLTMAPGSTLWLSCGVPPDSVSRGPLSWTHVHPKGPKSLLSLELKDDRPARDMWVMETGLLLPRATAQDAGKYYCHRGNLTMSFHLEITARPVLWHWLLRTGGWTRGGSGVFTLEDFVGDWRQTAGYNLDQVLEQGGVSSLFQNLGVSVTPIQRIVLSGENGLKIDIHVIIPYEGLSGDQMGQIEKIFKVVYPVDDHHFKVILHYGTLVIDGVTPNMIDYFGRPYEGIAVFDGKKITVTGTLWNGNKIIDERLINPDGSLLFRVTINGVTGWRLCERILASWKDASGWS
Experiment: NLuc binding assay, SIR on Jurkat-NFAT-GFP cells

- CD19-GGSG-NLuc (RLU): 6560 RLU
B1: CD8SP-FMC63-vL-TCRb-S57C-ECD-Bam-CD3zECDTMCP-opt-F-P2A-SP-FMC63-vH-hTCRa-T48C-ECDn-CD3zECDTMCP-opt2-F-F2A-PAC (other)
TCR beta: DIQMTQTTSSLSASLGDRVTISCRASQDISKYLNWYQQKPDGTVKLLIYHTSRLHSGVPSRFSGSGSGTDYSLTISNLEQEDIATYFCQQGNTLPYTFGGGTKLEITEDLKNVFPPEVAVFEPSEAEISHTQKATLVCLATGFYPDHVELSWWVNGKEVHSGVCTDPQPLKEQPALNDSRYCLSSRLRVSATFWQNPRNHFRCQVQFYGLSENDEWTQDRAKPVTQIVSAEAWGRADCGS[… about 150 residues …]
TCR alpha: EVKLQESGPGLVAPSQSLSVTCTVSGVSLPDYGVSWIRQPPRKGLEWLGVIWGSETTYYNSALKSRLTIIKDNSKSQVFLKMNSLQTDDTAIYYCAKHYYYGGSYAMDYWGQGTSVTVSSIQNPDPAVYQLRDSKSSDKSVCLFTDFDSQTNVSQSKDSDVYITDKCVLDMRSMDFKSNSAVAWSNKSDFACANAFNNSIIPEDTFFPSPESSCGT[… about 150 residues …]
notes: Polyprotein PRT 12512; also called 042117-B01
